The values that follow come from the BET-seq Pho4 binding data (Le et al. 2018).

Some of the results follow. Values were computed here from the reads of four pooled replicates and scatter widely.

The target in this assay is T1, Pho4 (S. cerevisiae) (UniProt P07270).
T1 sequence: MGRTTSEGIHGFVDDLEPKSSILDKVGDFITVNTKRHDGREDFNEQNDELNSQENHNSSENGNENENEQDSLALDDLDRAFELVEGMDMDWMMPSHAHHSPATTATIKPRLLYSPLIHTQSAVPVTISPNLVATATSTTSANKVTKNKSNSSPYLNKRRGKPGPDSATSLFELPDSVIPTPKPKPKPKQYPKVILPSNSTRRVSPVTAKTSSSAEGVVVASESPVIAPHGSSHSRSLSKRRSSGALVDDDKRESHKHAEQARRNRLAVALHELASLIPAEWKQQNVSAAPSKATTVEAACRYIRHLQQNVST
Kind of assay: relative binding free energy (BET-seq); higher = weaker binding. The settings on record: reference: library average.
GCAGGCACGTGTTGAT: the “relative binding free energy” value turned out to be 0.0418 kJ/mol.

TGTTTCACGTGGATAT: the “relative binding free energy” value is 0.502 kJ/mol. Then GGTAACACGTGGGTAA, with -0.544 kJ/mol.

TTTGGCACGTGAAATC: the “relative binding free energy” value amounted to 0.753 kJ/mol.

For the sequence AGGAGCACGTGCGGTT, the “relative binding free energy” value worked out at 0.0837 kJ/mol. With GATGACACGTGTGGTG, the “relative binding free energy” value amounted to 0.167 kJ/mol.

With TCTGACACGTGGTGTG, the “relative binding free energy” value was -0.418 kJ/mol. Regarding ACGCGCACGTGGGAGG, the “relative binding free energy” value was -0.251 kJ/mol.

Regarding TTTTGCACGTGCGGAC, the “relative binding free energy” value is 0.251 kJ/mol.

Consider TGTCTCACGTGGTTTA, for which the “relative binding free energy” value is 0.795 kJ/mol. With TAGTTCACGTGACGTG, the “relative binding free energy” value was found to be 0.753 kJ/mol. GTCAGCACGTGTGAGG: the “relative binding free energy” value is -0.251 kJ/mol.

Turning to ATGGTCACGTGGTTTG, the “relative binding free energy” value was -0.126 kJ/mol. On to CTCGTCACGTGGAGGT, for which the “relative binding free energy” value is 0.418 kJ/mol. Then TGAGCCACGTGGGTGC, with -1.13 kJ/mol; and GTATGCACGTGGGGAC, with -0.0837 kJ/mol. TTGGCCACGTGGCTGT: the “relative binding free energy” value is -0.837 kJ/mol. For GGGCGCACGTGGTATA, the “relative binding free energy” value is -0.837 kJ/mol. Turning to GGTCGCACGTGAGGTG, the “relative binding free energy” value was found to be 0.962 kJ/mol.

Regarding TAGAGCACGTGATTTG, the “relative binding free energy” value was -0.0418 kJ/mol.

For the sequence AATGGCACGTGATTTA, the “relative binding free energy” value was determined as 0.0418 kJ/mol. The figure for TATGCCACGTGTGGGG is -0.377 kJ/mol. For AGGCCCACGTGAGGGG, the “relative binding free energy” value stood at 0.46 kJ/mol.

In the case of CTGTTCACGTGTAGGG, the “relative binding free energy” value amounted to 1.09 kJ/mol.

TTTTGCACGTGACCGT: the “relative binding free energy” value was 0.377 kJ/mol. The figure for TTGATCACGTGCAAGG is 0.586 kJ/mol; for TGGCACACGTGTGTGA it is 0.0837 kJ/mol; for GGGTGCACGTGGGCTC it is -0.502 kJ/mol. Then TCAGGCACGTGTTGGG, with -0.251 kJ/mol. For AGCGGCACGTGGTCTT, the “relative binding free energy” value is -0.46 kJ/mol.

As for GGATTCACGTGACTGT, the “relative binding free energy” value turned out to be 1.3 kJ/mol.

GTTCACACGTGGGCAT: the “relative binding free energy” value stood at 0.126 kJ/mol. Take GTTGTCACGTGACTTG: the “relative binding free energy” value is 0.586 kJ/mol. The figure for AGTCGCACGTGTTGGC is 0.879 kJ/mol; for TATTTCACGTGATATA it is 0.962 kJ/mol; for AGTATCACGTGGCTGA it is 0.0837 kJ/mol. Regarding CTGTCCACGTGTGGGT, the “relative binding free energy” value was -0.0837 kJ/mol.

Take GGGTTCACGTGGTGGG: the “relative binding free energy” value worked out at 1.3 kJ/mol.

As for GTGTGCACGTGTAATT, the “relative binding free energy” value came to 0.753 kJ/mol. TAAAGCACGTGGTTAG: the “relative binding free energy” value is -0.377 kJ/mol. Then TATCGCACGTGTTATT, with 0.0418 kJ/mol; and GTGGACACGTGTTGCT, with 0.502 kJ/mol. The figure for TTAGCCACGTGTGAGT is -0.418 kJ/mol; for ACTAGCACGTGTGTAG it is 0.251 kJ/mol; for ATGTACACGTGGAAGT it is 0.502 kJ/mol. Then TTGTGCACGTGCGTCT, with -0.335 kJ/mol. Take TTCTTCACGTGGTTAG: the “relative binding free energy” value came out at 1.05 kJ/mol. Then TTCGGCACGTGAAGTT, with 0.669 kJ/mol; and GGGACCACGTGCTGGG, with -0.753 kJ/mol; and CGGAACACGTGGTTTG, with -0.293 kJ/mol. AGTCTCACGTGGTTAA: the “relative binding free energy” value came out at 0.879 kJ/mol.

Regarding CTTATCACGTGGGTGA, the “relative binding free energy” value was 0.0418 kJ/mol.

Turning to GGTGGCACGTGTGCCT, the “relative binding free energy” value is -0.126 kJ/mol. The figure for AAGGGCACGTGATATT is -0.0837 kJ/mol; for GATTACACGTGGAATG it is 0.92 kJ/mol; for CAGGCCACGTGGAGGG it is -0.753 kJ/mol. For TTAGACACGTGTGGTA, the “relative binding free energy” value stood at 0.209 kJ/mol.

In the case of GATTGCACGTGATGAT, the “relative binding free energy” value is 1.34 kJ/mol. As to GGAATCACGTGTCGTA, the “relative binding free energy” value came to 1 kJ/mol. The figure for TTGGTCACGTGATGGT is 1.42 kJ/mol; for TGCGGCACGTGGGCCG it is -0.628 kJ/mol; for TCTTGCACGTGTGGAA it is 0.544 kJ/mol. Turning to TTTCGCACGTGTGAGT, the “relative binding free energy” value amounted to 0.669 kJ/mol.
